Drawing on the antibiotic and cytotoxicity screens of Wong et al. (2023), this text covers cytotoxicity call and growth inhibition call for 27 compounds.

The subject of assay [1] is HSkMC (human skeletal muscle cells). As to the kind of experiment: cytotoxicity call (relative viability < 0.9). The conditions noted are these: 10 µM.
In assay [2] the test system is HepG2. As to the kind of experiment: cytotoxicity call (relative viability < 0.9). The note with it: 10 µM.
For assay [3], the system named is S. aureus RN4220. As to the kind of experiment: growth inhibition call (relative growth <= 0.2). The note with it: 50 µM.

The other results are listed elsewhere or left out.

`Cc1ccc(C(=O)Oc2ccc(/C=N/c3cccs3)cc2)cc1`: in assay [1], the cytotoxicity call was “inactive”. Also, the cytotoxicity call in assay [2] is “active”. Also, the growth inhibition call in assay [3] is “inactive”.
`CC(C)/C(=N/O)c1ccccc1`: the cytotoxicity call in assay [1] and in assay [2] was “inactive” each time. Also, the growth inhibition call in assay [3] is “inactive”.
With `C[C@@H]1CN([C@@H](C)CO)C(=O)Cc2cc(NC(=O)NC3CCCCC3)ccc2O[C@@H]1CN(C)Cc1ccc(Oc2ccccc2)cc1`, the cytotoxicity call in assay [1] is “inactive”. In assay [2], the cytotoxicity call is “active”. The growth inhibition call in assay [3] was “inactive”.
As to `C[C@H](CO)N1C[C@H](C)[C@@H](CN(C)S(=O)(=O)c2ccc(Cl)cc2)OCCCC[C@H](C)Oc2ccc(NC(=O)Nc3cccc4ccccc34)cc2C1=O`, the cytotoxicity call in assay [1] and in assay [2] was “inactive” in each case. In addition, the growth inhibition call in assay [3] is “inactive”.
For the compound `CCC[C@@]1(CCc2ccccc2)CC(=O)[C@@H]([C@H](CC)c2cccc(NS(=O)(=O)c3ccc(C(F)(F)F)cn3)c2)C(=O)O1`, the cytotoxicity call in assay [1] and in assay [2] was “inactive” each time. For the same compound, the growth inhibition call in assay [3] is “inactive”.
On to `Cc1noc(C)c1NC(=O)Nc1ccc2c(c1)C(=O)N([C@@H](C)CO)C[C@@H](C)[C@H](CN(C)C(=O)Nc1ccc(C(F)(F)F)cc1)OCCCC[C@@H](C)O2`, for which the cytotoxicity call in assay [1] and in assay [2] was “inactive” each time. Besides, the growth inhibition call in assay [3] is “inactive”.
As for `COc1cccc(C(=O)Nc2ccc3c(c2)C(=O)N(C)[C@H]2CC[C@@H](CC(=O)NCC4CC4)O[C@@H]2CO3)c1`, the cytotoxicity call in assay [1] and in assay [2] was “inactive” each time. In assay [3], the growth inhibition call was “inactive”.
In the case of `CN1CCN(C(=O)[C@@H]2[C@@H](CO)[C@@H]3Cn4c(cccc4=O)[C@H]2N3S(=O)(=O)c2ccccc2F)CC1`, the cytotoxicity call in assay [1] and in assay [2] was “inactive” throughout. Moreover, the growth inhibition call in assay [3] was “inactive”.
As for `COc1ccc(S(=O)(=O)N(C)C[C@H]2Oc3ccc(NC(=O)CCC(F)(F)F)cc3CC(=O)N([C@H](C)CO)C[C@H]2C)cc1`, the cytotoxicity call in assay [1] and in assay [2] was “inactive” each time. Also, the growth inhibition call in assay [3] was “inactive”.
As for `C[C@@H]1CN([C@@H](C)CO)C(=O)c2cc(NC(=O)Nc3ccc4c(c3)OCO4)ccc2O[C@@H]1CN(C)Cc1ccc(Cl)c(Cl)c1`, the cytotoxicity call in assay [1] is “inactive”. Besides, the cytotoxicity call in assay [2] is “active”. Besides, in assay [3], the growth inhibition call was “inactive”.
Regarding `CCC(=O)N1Cc2cc(C(=O)NCc3cccc(F)c3)nc(-c3cccc(C4=CCCC4)c3)c2[C@H]1CCO`, the cytotoxicity call in assay [1] and in assay [2] was “inactive” each time. Also, in assay [3], the growth inhibition call is “inactive”.
For the compound `COC(=O)c1sc2ccccc2c1NC(=O)c1ccc(S(=O)(=O)N2C[C@@]3(C)C[C@@H]2CC(C)(C)C3)cc1`, the cytotoxicity call in assay [1] and in assay [2] was “inactive” each time. Further, in assay [3], the growth inhibition call is “inactive”.
With `CN(C)CC(=O)N[C@H]1CC[C@@H](CC(=O)O)O[C@@H]1CO`, the cytotoxicity call in assay [1] and in assay [2] was “inactive” throughout. For the same compound, the growth inhibition call in assay [3] was “inactive”.
Take `C[C@@H]1CN([C@@H](C)CO)C(=O)CCCn2nncc2CO[C@@H]1CN(C)S(=O)(=O)c1cccc(C#N)c1`: the cytotoxicity call in assay [1] and in assay [2] was “inactive” each time. The growth inhibition call in assay [3] was “inactive”.
Take `C=CCCC(=O)N(C)[C@H](C)[C@H](OC(=O)[C@@H]1[C@@H]2C=C[C@]3(O2)[C@H](C(=O)N(CC=C)Cc2ccccc2)N(Cc2ccc(OC)cc2)C(=O)[C@@H]13)c1ccccc1`: the cytotoxicity call in assay [1] and in assay [2] was “inactive” each time. Also, in assay [3], the growth inhibition call was “inactive”.
Regarding `CN(C)CC(=O)N[C@@H]1CC[C@@H](CCNC(=O)C2CCC2)O[C@@H]1CO`, the cytotoxicity call in assay [1] and in assay [2] was “inactive” each time. The growth inhibition call in assay [3] was “inactive”.
Turning to `C[C@@H]1CCCCO[C@@H](CN(C)Cc2ccc(Cl)c(Cl)c2)[C@@H](C)CN([C@H](C)CO)C(=O)c2cc(N(C)C)ccc2O1`, the cytotoxicity call in assay [1] and in assay [2] was “inactive” in each case. The growth inhibition call in assay [3] is “inactive”.
With `C[C@@H]1CN([C@@H](C)CO)C(=O)c2cc(NC(=O)CCC(F)(F)F)ccc2O[C@H]1CN(C)Cc1ccc(C(F)(F)F)cc1`, the cytotoxicity call in assay [1] and in assay [2] was “inactive” each time. Also, the growth inhibition call in assay [3] is “inactive”.
In the case of `CCOC(=O)c1cn[nH]c1`, the cytotoxicity call in assay [1] and in assay [2] was “inactive” in each case. Moreover, the growth inhibition call in assay [3] was “inactive”.
With `C[C@@H]1CN([C@@H](C)CO)C(=O)Cc2cc(NC(=O)c3ccncc3)ccc2O[C@@H]1CN(C)Cc1ccc(Oc2ccccc2)cc1`, in assay [1], the cytotoxicity call was “inactive”. The cytotoxicity call in assay [2] was “active”. In addition, the growth inhibition call in assay [3] was “inactive”.
Take `C=CCOC(=O)[C@H]1[C@@H]2C(=O)O[C@@H](c3ccccc3)[C@@H](c3ccccc3)N2[C@@H](c2ccc(OCCOC(=O)NCCCCCC(=O)NO)cc2)[C@@]12C(=O)Nc1ccccc12`: the cytotoxicity call in assay [1] and in assay [2] was “inactive” throughout. Also, the growth inhibition call in assay [3] was “inactive”.
As for `C[C@@H]1CCCCO[C@@H](CN(C)C(=O)CCC(F)(F)F)[C@@H](C)CN([C@@H](C)CO)C(=O)c2cc(NC(=O)Cc3ccccc3)ccc2O1`, the cytotoxicity call in assay [1] and in assay [2] was “inactive” in each case. Further, the growth inhibition call in assay [3] was “inactive”.
With `C[C@@H]1CN([C@H](C)CO)C(=O)c2cc(NC(=O)CCCN(C)C)ccc2O[C@H]1CN(C)C(=O)NC1CCCCC1`, the cytotoxicity call in assay [1] and in assay [2] was “inactive” in each case. Also, the growth inhibition call in assay [3] was “inactive”.
Turning to `C[C@@H]1CN([C@H](C)CO)C(=O)c2cccc(NC(=O)c3ccncc3)c2O[C@@H]1CN(C)S(=O)(=O)c1cn(C)cn1`, the cytotoxicity call in assay [1] and in assay [2] was “inactive” in each case. The growth inhibition call in assay [3] is “inactive”.
As for `CCCC#Cc1cnc2c(c1)C(=O)N([C@@H](C)CO)C[C@@H](C)[C@H](CN(C)C(=O)c1ccc3c(c1)OCO3)O2`, the cytotoxicity call in assay [1] and in assay [2] was “inactive” throughout. For the same compound, the growth inhibition call in assay [3] is “inactive”.
On to `C[C@@H]1CCCCO[C@@H](CN(C)Cc2ccc(Cl)c(Cl)c2)[C@@H](C)CN([C@@H](C)CO)C(=O)c2cc(NS(=O)(=O)c3ccc(F)cc3)ccc2O1`, for which the cytotoxicity call in assay [1] and in assay [2] was “inactive” in each case. In assay [3], the growth inhibition call is “inactive”.
As to `CC1(C)CC[C@]2(C(=O)O[C@@H]3O[C@H](CO)[C@@H](O)[C@H](O)[C@H]3O)CC[C@]3(C)C(=CC[C@H]4[C@@]5(C)CC[C@@H](O[C@@H]6O[C@H](C(=O)O)[C@@H](O[C@@H]7OC[C@@H](O)[C@H](O)[C@H]7O)[C@H](O[C@@H]7OC[C@](O)(CO)[C@H]7O)[C@H]6O)C(C)(C)[C@@H]5CC[C@]43C)[C@@H]2C1`, the cytotoxicity call in assay [1] and in assay [2] was “inactive” each time. Further, the growth inhibition call in assay [3] is “inactive”.
